# The list shows a part of the results.
# B1: PX15618B-bfa-464-25-464 (Bacteroides fragilis) (protein)
# chain: DQEPPLYVNENDIFTSPTRIEATLNGLYAAIKNTGTKSLMGGKSYLVFDNRGDDVINISNNLVTLFNTYNMNVGITDAENADTWTYAYLAINKVNTFLQSLEGAREVAGENYDRYVQEAKFVRALAYYYLNNLYPTPYSVNPDAKSVPLRLTAEAGTENNNMPRSTVKQIYEHILSDLENISALDTEVNTYTGVTHATQAAANMLKMRVYMAMNEWDKAITAGELVTGYSLPEDVTLIYKAPYFSQESIFSLPMADTNIPNTQQSLAEYYYDGKIMLIDTKSGIMSKPDYSLATDKRIIAFKGEKDLLMKFTDAKTKLQWVPIFRYAETLLDLAECYANKAGGEATAKSLLKQVRGRSVDAATDPLNIDNLSGDALKEAIYNEKRLEFIGEGIRGIDIMRRGEHFIKVGENETINVGPSDEKYTWPIPQVELLLNKDINK
# Legend:
# Assay in all cases: glycan array binding signal (z-score within array); higher = stronger binding
# Conditions in all cases: glycan notation: IUPAC condensed, linker removed
# Neu5Ac(a2-3)Gal(b1-4)Glc = biological target: Neu5Ac(a2-3)Gal(b1-4)Glc
# Procedure, shortened: (§1)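 Glycan array binding is given as a within-array Z-score, which can be read as non-binding when negative. The arrays, 3228 of them, came from the Consortium for Functional Glycomics database and were retained only where the protein sequence was available. Z-scores were averaged across arrays of the same protein sequence at different concentrations or buffers and across linkers.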
# [1] = biological target: Neu5Ac(a2-3)Gal(b1-4)GlcNAc
# Procedure, shortened: as §1
# [2] = biological target: Neu5Ac(a2-3)Gal(b1-4)GlcNAc(b1-2)Man
# Procedure, shortened: as §1
# [3] = biological target: Neu5Ac(a2-3)Gal(b1-4)GlcNAc(b1-2)Man(a1-3)[GlcNAc(b1-4)][Neu5Ac(a2-3)Gal(b1-4)GlcNAc(b1-2)Man(a1-6)]Man(b1-4)GlcNAc(b1-4)GlcNAc
# Procedure, shortened: as §1
# [4] = biological target: Neu5Ac(a2-3)Gal(b1-4)GlcNAc(b1-2)Man(a1-3)[Neu5Ac(a2-3)Gal(b1-4)GlcNAc(b1-2)Man(a1-6)]Man(b1-4)GlcNAc(b1-4)GlcNAc
# Procedure, shortened: as §1
# [5] = biological target: Neu5Ac(a2-3)Gal(b1-4)GlcNAc(b1-2)Man(a1-3)[Neu5Ac(a2-3)Gal(b1-4)GlcNAc(b1-2)Man(a1-6)]Man(b1-4)GlcNAc(b1-4)[Fuc(a1-6)]GlcNAc
# Procedure, shortened: as §1
# [6] = biological target: Neu5Ac(a2-3)Gal(b1-4)GlcNAc(b1-2)Man(a1-3)[Neu5Ac(a2-6)Gal(b1-4)GlcNAc(b1-2)Man(a1-6)]Man(b1-4)GlcNAc(b1-4)GlcNAc
# Procedure, shortened: as §1
# [7] = biological target: Neu5Ac(a2-3)Gal(b1-4)GlcNAc(b1-2)[Neu5Ac(a2-3)Gal(b1-4)GlcNAc(b1-4)]Man(a1-3)[GlcNAc(b1-4)][Neu5Ac(a2-3)Gal(b1-4)GlcNAc(b1-2)[Neu5Ac(a2-3)Gal(b1-4)GlcNAc(b1-6)]Man(a1-6)]Man(b1-4)GlcNAc(b1-4)GlcNAc
# Procedure, shortened: as §1
# [8] = biological target: Neu5Ac(a2-3)Gal(b1-4)GlcNAc(b1-2)[Neu5Ac(a2-3)Gal(b1-4)GlcNAc(b1-4)]Man(a1-3)[GlcNAc(b1-4)][Neu5Ac(a2-3)Gal(b1-4)GlcNAc(b1-4)Man(a1-6)]Man(b1-4)GlcNAc(b1-4)GlcNAc
# Procedure, shortened: as §1
# [9] = biological target: Neu5Ac(a2-3)Gal(b1-4)GlcNAc(b1-2)[Neu5Ac(a2-3)Gal(b1-4)GlcNAc(b1-6)]Man(a1-6)[Neu5Ac(a2-3)Gal(b1-4)GlcNAc(b1-2)Man(a1-3)]Man(b1-4)GlcNAc(b1-4)GlcNAc
# Procedure, shortened: as §1
# [10] = biological target: Neu5Ac(a2-3)Gal(b1-4)GlcNAc(b1-2)[Neu5Ac(a2-3)Gal(b1-4)GlcNAc(b1-6)]Man(a1-6)[Neu5Ac(a2-3)Gal(b1-4)GlcNAc(b1-2)Man(a1-3)][GlcNAc(b1-4)]Man(b1-4)GlcNAc(b1-4)GlcNAc
# Procedure, shortened: as §1
# [11] = biological target: Neu5Ac(a2-3)Gal(b1-4)GlcNAc(b1-3)Gal
# Procedure, shortened: as §1
# [12] = biological target: Neu5Ac(a2-3)Gal(b1-4)GlcNAc(b1-3)Gal(b1-3)GlcNAc
# Procedure, shortened: as §1
# [13] = biological target: Neu5Ac(a2-3)Gal(b1-4)GlcNAc(b1-3)Gal(b1-4)GlcNAc
# Procedure, shortened: as §1
# [14] = biological target: Neu5Ac(a2-3)Gal(b1-4)GlcNAc(b1-3)Gal(b1-4)GlcNAc(b1-2)Man(a1-3)[Neu5Ac(a2-3)Gal(b1-4)GlcNAc(b1-3)Gal(b1-4)GlcNAc(b1-2)Man(a1-6)]Man(b1-4)GlcNAc(b1-4)GlcNAc
# Procedure, shortened: as §1
# [15] = biological target: Neu5Ac(a2-3)Gal(b1-4)GlcNAc(b1-3)Gal(b1-4)GlcNAc(b1-3)Gal(b1-4)GlcNAc
# Procedure, shortened: as §1
# [16] = biological target: Neu5Ac(a2-3)Gal(b1-4)GlcNAc(b1-3)Gal(b1-4)GlcNAc(b1-3)Gal(b1-4)GlcNAc(b1-2)Man(a1-3)[Neu5Ac(a2-3)Gal(b1-4)GlcNAc(b1-3)Gal(b1-4)GlcNAc(b1-3)Gal(b1-4)GlcNAc(b1-2)Man(a1-6)]GalNAc
# Procedure, shortened: as §1
# [17] = biological target: Neu5Ac(a2-3)Gal(b1-4)GlcNAc(b1-3)Gal(b1-4)GlcNAc(b1-3)GalNAc
# Procedure, shortened: as §1
# [18] = biological target: Neu5Ac(a2-3)Gal(b1-4)GlcNAc(b1-3)Gal(b1-4)GlcNAc(b1-3)[Neu5Ac(a2-3)Gal(b1-4)GlcNAc(b1-3)Gal(b1-4)GlcNAc(b1-6)]GalNAc
# Procedure, shortened: as §1
# [19] = biological target: Neu5Ac(a2-3)Gal(b1-4)GlcNAc(b1-3)Gal(b1-4)GlcNAc(b1-6)[Gal(b1-3)]GalNAc
# Procedure, shortened: as §1
# [20] = biological target: Neu5Ac(a2-3)Gal(b1-4)GlcNAc(b1-3)Gal(b1-4)[Fuc(a1-3)]GlcNAc
# Procedure, shortened: as §1
# [21] = biological target: Neu5Ac(a2-3)Gal(b1-4)GlcNAc(b1-3)GalNAc
# Procedure, shortened: as §1
# [22] = biological target: Neu5Ac(a2-3)Gal(b1-4)GlcNAc(b1-3)[Neu5Ac(a2-3)Gal(b1-4)GlcNAc(b1-6)]GalNAc
# Procedure, shortened: as §1
# [23] = biological target: Neu5Ac(a2-3)Gal(b1-4)GlcNAc(b1-6)GalNAc
# Procedure, shortened: as §1
# [24] = biological target: Neu5Ac(a2-3)Gal(b1-4)GlcNAc(b1-6)[Gal(b1-3)]GalNAc
# Procedure, shortened: as §1
# [25] = biological target: Neu5Ac(a2-3)Gal(b1-4)GlcNAc(b1-6)[Neu5Ac(a2-3)Gal(b1-3)]GalNAc
# Procedure, shortened: as §1
# [26] = biological target: Neu5Ac(a2-3)Gal(b1-4)GlcNAc6S
# Procedure, shortened: as §1
# [27] = biological target: Neu5Ac(a2-3)Gal(b1-4)[Fuc(a1-3)]GlcNAc
# Procedure, shortened: as §1
# [28] = biological target: Neu5Ac(a2-3)Gal(b1-4)[Fuc(a1-3)]GlcNAc(b1-2)Man
# Procedure, shortened: as §1
# [29] = biological target: Neu5Ac(a2-3)Gal(b1-4)[Fuc(a1-3)]GlcNAc(b1-3)Gal
# Procedure, shortened: as §1
# [30] = biological target: Neu5Ac(a2-3)Gal(b1-4)[Fuc(a1-3)]GlcNAc(b1-3)Gal(b1-4)GlcNAc
# Procedure, shortened: as §1
# [31] = biological target: Neu5Ac(a2-3)Gal(b1-4)[Fuc(a1-3)]GlcNAc(b1-3)Gal(b1-4)[Fuc(a1-3)]GlcNAc(b1-3)Gal(b1-4)[Fuc(a1-3)]GlcNAc
# Procedure, shortened: as §1
# [32] = biological target: Neu5Ac(a2-3)Gal(b1-4)[Fuc(a1-3)]GlcNAc(b1-3)GalNAc
# Procedure, shortened: as §1
# [33] = biological target: Neu5Ac(a2-3)Gal(b1-4)[Fuc(a1-3)]GlcNAc(b1-6)[Gal(b1-3)]GalNAc
# Procedure, shortened: as §1
# [34] = biological target: Neu5Ac(a2-3)Gal(b1-4)[Fuc(a1-3)]GlcNAc(b1-6)[Neu5Ac(a2-3)Gal(b1-3)]GalNAc
# Procedure, shortened: as §1
# [35] = biological target: Neu5Ac(a2-3)Gal(b1-4)[Fuc(a1-3)]GlcNAc6S
# Procedure, shortened: as §1
# [36] = biological target: Neu5Ac(a2-3)Gal6S(b1-4)GlcNAc
# Procedure, shortened: as §1
# [37] = biological target: Neu5Ac(a2-3)Gal6S(b1-4)[Fuc(a1-3)]GlcNAc
# Procedure, shortened: as §1
binder,measurement,setting,value
B1,glycan array binding signal (z-score),Neu5Ac(a2-3)Gal(b1-4)Glc,0.019
same,glycan array binding signal (z-score),[1],-0.082
same,glycan array binding signal (z-score),[2],-0.153
same,glycan array binding signal (z-score),[3],-0.355
same,glycan array binding signal (z-score),[4],0.297
same,glycan array binding signal (z-score),[5],-0.2
same,glycan array binding signal (z-score),[6],-0.086
same,glycan array binding signal (z-score),[7],-0.927
same,glycan array binding signal (z-score),[8],0.333
same,glycan array binding signal (z-score),[9],0.705
same,glycan array binding signal (z-score),[10],-0.203
same,glycan array binding signal (z-score),[11],-0.438
same,glycan array binding signal (z-score),[12],-0.326
same,glycan array binding signal (z-score),[13],-0.253
same,glycan array binding signal (z-score),[14],-0.292
same,glycan array binding signal (z-score),[15],-0.223
same,glycan array binding signal (z-score),[16],3.29
same,glycan array binding signal (z-score),[17],-0.439
same,glycan array binding signal (z-score),[18],0.164
same,glycan array binding signal (z-score),[19],0.194
same,glycan array binding signal (z-score),[20],-0.466
same,glycan array binding signal (z-score),[21],-0.321
same,glycan array binding signal (z-score),[22],-0.275
same,glycan array binding signal (z-score),[23],-0.278
same,glycan array binding signal (z-score),[24],0.439
same,glycan array binding signal (z-score),[25],-0.318
same,glycan array binding signal (z-score),[26],-0.084
same,glycan array binding signal (z-score),[27],-0.46
same,glycan array binding signal (z-score),[28],-0.417
same,glycan array binding signal (z-score),[29],-0.393
same,glycan array binding signal (z-score),[30],-0.434
same,glycan array binding signal (z-score),[31],-0.12
same,glycan array binding signal (z-score),[32],0.124
same,glycan array binding signal (z-score),[33],-0.597
same,glycan array binding signal (z-score),[34],0.089
same,glycan array binding signal (z-score),[35],-0.804
same,glycan array binding signal (z-score),[36],-0.187
same,glycan array binding signal (z-score),[37],-0.819
